This is an account of results in publication PMC12040169 (PLOS Biology, 2025).

Some of the results follow.

In this test the test system is T1, C. trachomatis L2/434/Bu expressing GFP (CTL2-GFP).
T1 construct: L2/434/Bu GFP intracellular growth in HeLa cells
On the set-up: species or system HeLa; C. trachomatis total inclusion area by high-content imaging, normalised to DMSO. The settings on record: total inclusion area; 28.5 h, 10 µM; inhibitor. Summed up: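 Host cell viability was gauged from Hoechst-stained nuclei counts, while chlamydial growth was taken from total inclusion area and inclusion number per well. Cells were fixed and imaged by high-content microscopy once bulk GFP and resorufin fluorescence had been measured.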
Regarding `O=C(Cn1nc(C(=O)O)c2ccccc2c1=O)c1ccc(C2CCCCC2)cc1` [CBK297538], the “% of control remaining” value amounted to 100.365.

As to `CCOc1cccc(-c2cn3ccnc3c(NCc3cc(OC)c(OC)c(OC)c3)n2)c1` [CBK066717], the “% of control remaining” value came out at 88.1743.

On to `COc1cc(C=C2SC(=S)N(CCCCCC(=O)O)C2=O)cc(OC)c1` [CBK297505], for which the “% of control remaining” value amounted to 106.816.

Regarding `Cc1noc(C)c1CS(=O)(=O)Cc1ccc(Cl)cc1` [CBK034194], the “% of control remaining” value was found to be 48.7163.

Take `COc1ccc(-c2cc(=O)[nH]c(=S)s2)cc1` [CBK288355]: the “% of control remaining” value is 105.284.

Take `CC(C)(C)NC(=O)c1nn2c(c1Br)NC(c1cccs1)CC2C(F)(F)F` (centres unmarked) [CBK307175]: the “% of control remaining” value was determined as 75.6689.

`Cc1ccc(CS(=O)(=O)NCCn2nc(C)c(C)c2C)cc1` [CBK281383]: the “% of control remaining” value was 99.8173.

On to `CCn1c(SCC(=O)c2ccc(F)cc2)nnc1C(C)Oc1ccccc1` (centres unmarked) [CBK269695], for which the “% of control remaining” value is 73.5229.

As for `Cc1ccsc1CN(CCCO)Cc1cn(C)nc1C` [CBK282983], the “% of control remaining” value is recorded as 94.7342.

`c1cc2c(cc1-c1nn3cnnc3s1)OCCO2` [CBK287866]: the “% of control remaining” value was determined as 81.069.

`Nc1ccc2cc(-c3ccsc3)cnc2n1` [CBK081167]: the “% of control remaining” value was found to be 90.5904.

In the case of `Oc1cccc(-c2cn3ccnc3c(NC3CC3)n2)c1` [CBK038076], the “% of control remaining” value is recorded as 74.199.

For the molecule `COc1cc(CNc2cncc(-c3cccc(NC(C)=O)c3)n2)cc(OC)c1OC` [CBK066133], the “% of control remaining” value was found to be 127.239.

With `Cc1nc(C)c(C(=O)N2CCCC(c3cc4cccnc4[nH]3)C2)s1` (centres unmarked) [CBK284995], the “% of control remaining” value is given as 96.5753.

On to `CC(C)CN1CCC2(CC=CCN(Cc3ccc(F)cc3)C2=O)CC1` [CBK285521], for which the “% of control remaining” value was 93.8014.

Consider `COc1ccc(Cc2cccc(C3CCN(C(=O)Cc4ccc(F)cc4)CC3)n2)cc1` [CBK286225], for which the “% of control remaining” value came out at 92.5949.

On to `Cn1c(=O)n(CC(=O)OCc2ccccc2)c2cccnc21` [CBK284019], for which the “% of control remaining” value is reported as 75.0599.

For `Cc1ccc(C)c(NC(=O)C(C)Sc2nc3ccccc3nc2C)c1` (centres unmarked) [CBK296744], the “% of control remaining” value came out at 98.8137.

As to `CN1CCN(c2ccc(S(=O)(=O)Nc3cc(C(=O)O)cc(C(=O)O)c3)cc2[N+](=O)[O-])CC1` [CBK263862], the “% of control remaining” value turned out to be 92.1799.

For `N#Cc1cnc2ccccc2c1N1CCC(C(=O)O)CC1` [CBK288050], the “% of control remaining” value was determined as 94.4901.

In the case of `CC1=NN(c2ccccc2)C(=O)/C1=C1/C(=O)Nc2c(C)cc(Br)cc21` [CBK263950], the “% of control remaining” value was determined as 116.601.

Turning to `Cc1n[nH]c(C)c1Sc1n[nH]c(=O)[nH]c1=O` [CBK027833], the “% of control remaining” value is recorded as 76.1667.

For the molecule `Cc1cc(Cl)cc(Cl)c1S(=O)(=O)Nc1nc(-c2cccnc2)cs1` [CBK200035], the “% of control remaining” value was 67.5383.
